This is an account of results in patent JP2014043405A.

In test [1] the target is ヒトFcγRIIb (human) (UniProt P31994). The test can be described thus: SPR, KD; reference IL6R-G1d/IL6R-L. In general terms: Surface plasmon resonance follows binding to a sensor surface in real time, without labels.
The target of test [2] is ヒトFcγRIIa (R) (human) (UniProt P12318). Description: SPR, KD; reference IL6R-G1d/IL6R-L.
The target of test [3] is ヒトFcγRIIb (human) (UniProt P31994). Description: SPR, KD; reference IL6R-B3/IL6R-L.
Test [4] has the same target. The test can be described thus: SPR; KD for FcγRIIaR divided by KD for FcγRIIb.
For test [5] the target is unchanged. Description: SPR; KD for FcγRIIaH divided by KD for FcγRIIb.
Another test addresses ヒトFcγRIIIa V型 (human) (UniProt P08637). The test can be described thus: SPR, KD; reference IL6R-B3/IL6R-L.
The next test has as its target ヒトFcγRIIa (H) (human) (UniProt P12318). The test can be described thus: SPR, KD; reference IL6R-B3/IL6R-L.
In test [6] the target is ヒトFcγRIIa (R) (human) (UniProt P12318). The test can be described thus: SPR, KD; reference IL6R-B3/IL6R-L.

Sequence of UniProt P31994 (P31994 43-217): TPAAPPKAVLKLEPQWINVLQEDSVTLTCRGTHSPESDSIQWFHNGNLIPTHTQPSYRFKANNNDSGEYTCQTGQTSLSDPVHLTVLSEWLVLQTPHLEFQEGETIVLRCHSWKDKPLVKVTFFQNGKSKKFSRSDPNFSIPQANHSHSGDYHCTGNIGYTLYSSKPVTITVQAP

B1: IL6R-G4d/IL6R-L (antibody, human IgG4 S228P)
heavy: QVQLQESGPGLVKPSETLSLTCAVSGHSISHDHAWSWVRQPPGEGLEWIGFISYSGITNYNPSLQGRVTISRDNSKNTLYLQMNSLRAEDTAVYYCARSLARTTAMDYWGEGTLVTVSSASTKGPSVFPLAPCSRSTSESTAALGCLVKDYFPEPVTVSWNSGALTSGVHTFPAVLQSSGLYSLSSVVTVPSSSLGTKTYTCNVDHKPSNTKVDKRV[human IgG4 Fc with S228P (EU numbers) not given here]
light: DIQMTQSPSSLSASVGDRVTITCRASQDISSYLNWYQQKPGKAPKLLIYYTSRLHSGVPSRFSGSGSGTDFTFTISSLQPEDIATYYCQQGNTLPYTFGQGTKVEIK
For the molecule B1, the fold stronger binding than IL6R-G1d/IL6R-L with ヒトFcγRIIb (human) [1] was determined as 1.5 fold. In the test with ヒトFcγRIIa (R) (human) [2], this molecule showed a fold weaker binding than IL6R-G1d/IL6R-L of 2.2 fold.

B2: IL6R-BF648/IL6R-L (antibody, human IgG1)
heavy: QVQLQESGPGLVKPSETLSLTCAVSGHSISHDHAWSWVRQPPGEGLEWIGFISYSGITNYNPSLQGRVTISRDNSKNTLYLQMNSLRAEDTAVYYCARSLARTTAMDYWGEGTLVTVSS[human IgG1 constant region with P238D K439E (EU numbers) not given here]
light: B1 light
B2 returned a fold improvement of binding activity against IL6R-B3 with ヒトFcγRIIb (human) [3] of 2.6 fold.

B3: IL6R-B3/IL6R-L (antibody, human IgG1)
heavy: QVQLQESGPGLVKPSETLSLTCAVSGHSISHDHAWSWVRQPPGEGLEWIGFISYSGITNYNPSLQGRVTISRDNSKNTLYLQMNSLRAEDTAVYYCARSLARTTAMDYWGEGTLVTVSS[human IgG1 constant region with K439E (EU numbers) not given here]
light: B1 light
B3 registered a KD(IIaR)/KD(IIb) in the test with ヒトFcγRIIb (human) [4] of 0.3. Further, the KD(IIaH)/KD(IIb) with ヒトFcγRIIb (human) [5] was found to be 0.2.

B4: IL6R-G1d/IL6R-L (antibody, human IgG1)
heavy: QVQLQESGPGLVKPSETLSLTCAVSGHSISHDHAWSWVRQPPGEGLEWIGFISYSGITNYNPSLQGRVTISRDNSKNTLYLQMNSLRAEDTAVYYCARSLARTTAMDYWGEGTLVTVSS[human IgG1 constant region not given here]
light: B1 light
Regarding B4, the binding relative to IL6R-B3/IL6R-L (=1) amounted to 0.9 fold in the test with ヒトFcγRIIIa V型 (human), 1.1 fold with ヒトFcγRIIa (H) (human), 1.2 fold with ヒトFcγRIIb (human) [3] and 1.1 fold with ヒトFcγRIIa (R) (human) [6].
